Values marked as one replicate rest on one cluster of the flow cell; about a third of the high ones do not repeat.
test system: ATP; experiment: switch fluorescence ratio, 500 uM ATP over buffer (Cy3 cluster intensity, sum of 5 cycles each) (fold (ratio)); higher = stronger signal-on switching upon ATP binding; sequences stand for … in TCGTCGGCAGCGTCAGATGTGTATAAGAGACAGTTTTTTTTTTTTTTTTTTTTTTTTT…TC; details: aptamer strand: ATP DNA aptamer (quencher-CACCTGGGGGAGTATTGCGGAGGAAGG + anchor), 100 nM annealed; ATP concentration: 500 uM; one replicate
How it was run: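 Values give the fluorescence ratio for each switch-domain sequence, averaged from per-cluster ratios of summed target-cycle to summed buffer-cycle Cy3 intensity. The Cy3-labelled switching-strand clusters sat on a modified Illumina MiSeq flow-cell, were annealed to 100 nM quencher-labelled ATP aptamer, and were imaged in selection buffer, then after 15 min with 500 uM ATP at 22 °C. Five cycles ran with NaOH stripping and re-annealing between them, and clusters outside 100-1000 RFU were excluded.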
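Note: ATP exposure 15 min at 22 °C before imaging.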

Sequence	switch fluorescence ratio
GACTCACGTA	1.24
AGATATATGG	0.976
AGGTAAGGTC	1.02
CAATTGTTTT	1.02
CGCTCGGTAC	1.56
CCGGACGCCC	3.47
GCGTGGTACT	1.06
TTTGACGAGC	1
TTCACCCGTA	1.06
ACTTGCAGAA	1.01
TTTAACAGTC	1.04
GTCTTGTGGG	1.06
CAGGCAGATC	1.07
CGTGGCGCAT	1.02
TGGAGATGGG	0.995
GAGTAAGTAG	0.977
CAAAAGGGCT	0.996
GATTGTCGCA	0.954
CGCGACGTCT	0.985
CAGCGGCCGC	0.985
TAATGGGGG	0.992
GTGTGTGGAG	1.01
TCAAATTTGC	0.957
GGTTCCTAGA	1.02
CGATCCACAT	1.04
GAACTTATTA	1.01

Sequence	switch fluorescence ratio
TACGACTCGC	1.12
CACAACTTTG	0.995
GATATGATGT	1.02
CAACCGGTAA	1.13
GATAATTCGG	0.992
TTGGAAAGGA	0.981
ATGGGGAGGA	0.999
GCGCAAAGCC	1.03
TACATTGTTG	0.993
CCACGAATCA	1
TAAAAAGGCT	1.01
GTGGGTCAGA	1.03
GTATGATTTT	1.01
TAGGGTAGG	1.03
AAGCTGATGG	1
AGGGCACGTG	0.973
ACGCTTGGTT	0.978
GCAACTGCCG	0.968
ACGGGCGCCA	1.04
TCGGCATGTT	0.985
CTAGCGCCGT	1.02
TGGCATCTGG	0.973
TAATAAAAAC	0.996
CATAAAGGGT	1.04
TCAAACTAGA	0.955
GACAACGCAC	3.6

Sequence	switch fluorescence ratio
AGAGAAAAAA	1.02
TATATTCAAG	0.958
CCACGTGTGT	1.05
GATATGTGTC	0.958
ATGGTACGTC	1.01
CAACACGATG	1.03
CGGCATTGCT	1.09
TGATTCAATG	1.04
CCAAGGAGAG	1.01
GTTAGTAAAT	0.997
AGTTAGAATT	1.05
GGGCACAGTG	1.04
AAGGTCGGCA	1
GGTTTTGA	1.03
CCGTTGTTTT	1.05
CGGAAGCTCA	1.11
AGACGGGTCC	0.99
ATGTAAGGCT	0.962
ACGATAAACG	1.05
GAAGTCTGGT	0.986
TAGCTCTGTT	0.978
GAATAGGTAG	1.01
GGGTCAAGCT	1.06
CTGAAGACAT	1.07
TCTATGAGCC	0.987
AATCGCAAGC	4.73

Sequence	switch fluorescence ratio
GTGGTTACGT	0.979
ACTCGTGCC	0.946
AAGCATCAAT	0.95
AGCAATTGGC	1.3
TGTTTAACTG	0.96
TGTTAAACGT	1.03
GCTGAACTAA	0.978
CATTGGTG	0.972
TAGAGTCTAG	0.993
GAACGCTCAC	3.9
CGGTCGGGCT	0.992
CCGTACTAGT	1.06
GCCGGCTA	1.02
GGCTGAGGCT	0.998
GAGATCAGCT	1.03
TAGACCACGA	1
AGAGAGAACT	1
AAAGGTCGCG	0.991
CGTCCAAGCC	1.31
AGGGAAGTGT	0.987
CCTATTAGAC	1.17
ACCAGCAG	1.02
TACCTGTTTG	1.02
GTAACCCTGG	1.05
CCCAATATCG	1.38
GAACTTCGCG	1.2

Sequence	switch fluorescence ratio
GTCATAGGCC	0.995
AGCAAAGCAT	1.03
GCACGATG	1.01
ATATGGTGAA	1.02
GAGGTGGTTC	1.05
GCGACGATTA	1.2
AACCCAGGG	1.24
ATGCGTTGGG	0.963
GAAGTTACGC	1.02
AGCCGGATAA	1.01
ACGTGGCGGA	1.03
CAGAATTAAT	1.01
CCGTGGCGAG	1.26
GATTGCAAGA	1.09
AGCTTCTA	1.03
GGTTAACTTT	0.981
TTATGGATC	0.992
GTGTACCAAG	1.01
GCTGTCGGTA	1.04
TAATTCCGTC	1.06
TCATTACAAG	0.986
GGACGCGATG	1.18
TTTAAAAGCC	1.03
AGTAACTTCT	0.994
ACGTTGGTTG	0.997
AAAGAGTCGG	1.02

Sequence	switch fluorescence ratio
TTTAACTGGA	0.989
CAAATGTATA	1.05
CACGTGGCGT	1.03
TGGTATCATT	0.931
ACCTGATTCT	1.04
CATGTGTGAT	0.971
CGAGCCGTAA	0.929
GACCTGGTGT	1.6
TAAGTTTATT	1.02
TATGTTCTCC	1.03
TGAGCTCAT	0.948
TCTGCGTTGG	1.15
TGATTCTGGA	1.02
AGTAGAGGGC	1.01
AATGCTTATG	1.06
TCAGTCGTAC	1.04
GACGCCCTCT	1.08
CTCTGGGTTA	1.03
CATGTCGGTA	0.987
CGGTAGAGC	1.03
GTGTGACGTG	1.01
GATATGTCAG	0.949
CGCCCGGAGT	1.13
GGTTGCAG	0.993
CCCGAATTAA	1.12
CTTGTGTACC	1.03

Sequence	switch fluorescence ratio
TGAGTTGCCT	1.03
ATAAATGGCG	1
AGGTGTCAAG	1
GGATCAGTCG	1.04
TGGCACGTTA	1.07
AGTATCTTGC	0.959
GAAAGATTCG	1
TGATTCGCGA	1.08
CGGGCCCTCG	1.01
ATGCGATACG	1.47
AACACAGATG	1.01
CTGCTTTTTC	0.991
GCAACCCAGC	1.05
TATGAAGGTG	2.13
CCATCGCCCA	1.22
CCGATCTAGC	1.96
GAAGGAGCCG	0.951
GTCATGTTGT	0.996
CAAGGCAGCA	1.01
TACATTCTT	1.01
AAGGGATATT	0.986
CCGTTGCGAG	1.19
CCCCCGCATT	3.01
TCGTATTAAT	0.989
ATACGCATGG	1.6
ACCATGAGTA	0.966

Sequence	switch fluorescence ratio
CTTCGTTCAG	1.01
TCGCCATG	0.998
TCGATTTCAA	0.976
TATTTTGAGC	1.02
GGCTTGCATG	0.98
GGAAAACTTC	1.03
TTCGCGAG	1.04
GCCAAATTAC	1.43
TCTTGCTAGG	1
TCCTAGATTC	1.03
TTGCTAGTAC	1.24
AACCATCTGG	0.984
ACCTATGTCT	1.01
TAATGGTACG	1
GTAAGTGTTG	1.01
ATTTATTCAC	0.998
AGATTCTTGA	0.9
ATCCGGGCAG	1
AGCTTGGCCT	1

From the supplement of paper PMC10126150
